Assay results reported in the supplement of paper PMC4604168 (melanoma cell lines).
The other results are listed elsewhere or left out. Repeats are few or missing, and single values can be far off.

Columns and labels:
Test in all cases: cell count relative to DMSO control; melanoma cells; higher = more viable cells
Conditions in all cases: library dose: standard library concentration; 72 h
501Mel = system: 501Mel
A101D = system: A101D
A2058 = system: A2058
A375 = system: A375
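Note: cells treated in 1,536-well plates, then fixed and DAPI-stained, with nuclei counted from automated high-throughput microscope images.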

| Compound | cell count (501Mel) [%] | cell count (A101D) [%] | cell count (A2058) [%] | cell count (A375) [%] |
| --- | --- | --- | --- | --- |
| C/C(O)=C(\C#N)C(=O)Nc1cc(Br)ccc1Br + COc1cc(N2CCC(N3CCN(C)CC3)CC2)ccc1Nc1ncc(Cl)c(Nc2ccccc2S(=O)(=O)C(C)C)n1 [NVP-TAE684] (first compound 10 µM, partner dose 0.4 µM) | 82.7 | 94.2 | 70.2 | 80.5 |
| Cc1cc(N2CCOCC2)cc2[nH]c(-c3c(NC[C@@H](O)c4cccc(Cl)c4)cc[nH]c3=O)nc12 + O=C(Oc1ccc([N+](=O)[O-])cc1)N1CCC(C(O)(c2ccc3c(c2)OCO3)c2ccc3c(c2)OCO3)CC1 [JZL184] (first compound 1 µM, partner dose 5 µM) | 51.5 | 86.3 | 111 | 147 |
| CC(=O)O[C@@]12CO[C@@H]1C[C@H](O)[C@@]1(C)C(=O)[C@H](O)C3=C(C)[C@@H](OC(=O)[C@H](O)[C@@H](NC(=O)OC(C)(C)C)c4ccccc4)C[C@@](O)([C@@H](OC(=O)c4ccccc4)[C@H]21)C3(C)C [Docetaxel] + C/C(O)=C(\C#N)C(=O)Nc1cc(Br)ccc1Br [LFM-A13] (first compound 0.0005 µM, partner dose 10 µM) | 42.1 | 54.5 | 7.86 | 89.8 |
| CN(c1ncccc1CNc1nc(Nc2ccc3c(c2)CC(=O)N3)ncc1C(F)(F)F)S(C)(=O)=O + Cc1cc(SCc2sc(-c3ccc(C(F)(F)F)c(F)c3)nc2C)ccc1OCC(=O)O [GW0742] (first compound 0.4 µM, partner dose 10 µM) | 69 | 86.7 | 85.4 | 61.7 |
| COc1ccc(-c2ccc3c(N4CCOCC4)nc(N4C[C@@H](C)O[C@@H](C)C4)nc3n2)cc1CO + Cc1cc(SCc2sc(-c3ccc(C(F)(F)F)c(F)c3)nc2C)ccc1OCC(=O)O [GW0742] (first compound 0.1 µM, partner dose 10 µM) | 104 | 103 | 105 | 106 |
| O=C(O)[C@@H]1[O][Sb](=[O])([O][Sb]2(=[O])[O][C@H]([C@H](O)CO)[C@H](O)[C@H](C(=O)O)[O]2)[O][C@H]([C@H](O)CO)[C@@H]1O (stereo partly specified) [stibogluconate] + Cc1cc(SCc2sc(-c3ccc(C(F)(F)F)c(F)c3)nc2C)ccc1OCC(=O)O [GW0742] (first compound 10 µM, partner dose 10 µM) | 93.4 | 116 | 103 | 126 |
| C[C@@H](N)c1ccc(C(=O)Nc2ccnc3[nH]ccc23)cc1 + C/C(O)=C(\C#N)C(=O)Nc1cc(Br)ccc1Br [LFM-A13] (first compound 2 µM, partner dose 10 µM) | 76.4 | 74 | 72 | 120 |
| COc1ccc(-c2ccc3c(N4CCOCC4)nc(N4C[C@@H](C)O[C@@H](C)C4)nc3n2)cc1CO + O=C(Oc1ccc([N+](=O)[O-])cc1)N1CCC(C(O)(c2ccc3c(c2)OCO3)c2ccc3c(c2)OCO3)CC1 [JZL184] (first compound 0.1 µM, partner dose 5 µM) | 121 | 81.7 | 74.2 | 92.7 |
| C/C(O)=C(\C#N)C(=O)Nc1cc(Br)ccc1Br + O=c1cc(-c2cccc3c2Sc2ccccc2S3)oc(N2CCOCC2)c1 [KU55933] (first compound 10 µM, partner dose 5 µM) | 88.8 | 91.3 | 111 | 117 |
| Cn1cnc2c(F)c(Nc3ccc(Br)cc3Cl)c(C(=O)NOCCO)cc21 [selumetinib] + Cc1cc(SCc2sc(-c3ccc(C(F)(F)F)c(F)c3)nc2C)ccc1OCC(=O)O [GW0742] (first compound 0.075 µM, partner dose 10 µM) | 36.8 | 67.8 | 96.4 | 89.6 |
| O=C(Nc1cccc(Cl)c1)Nc1ncc(CCNc2ncnc3ccsc23)s1 + Cc1cc(SCc2sc(-c3ccc(C(F)(F)F)c(F)c3)nc2C)ccc1OCC(=O)O [GW0742] (first compound 0.004 µM, partner dose 10 µM) | 84.6 | 71.8 | 90.4 | 122 |
| N#CC[C@H](C1CCCC1)n1cc(-c2ncnc3[nH]ccc23)cn1 [ruxolitinib] + Cc1cc(SCc2sc(-c3ccc(C(F)(F)F)c(F)c3)nc2C)ccc1OCC(=O)O [GW0742] (first compound 5 µM, partner dose 10 µM) | 95.2 | 101 | 60.1 | 95.4 |
| CS(=O)(=O)CCNCc1ccc(-c2ccc3ncnc(Nc4ccc(OCc5cccc(F)c5)c(Cl)c4)c3c2)o1 [lapatinib] + O=C(Oc1ccc([N+](=O)[O-])cc1)N1CCC(C(O)(c2ccc3c(c2)OCO3)c2ccc3c(c2)OCO3)CC1 [JZL184] (first compound 4 µM, partner dose 5 µM) | 52.9 | 83.3 | 80.4 | 87.5 |
| CCN(CC)CCNC(=O)c1c(C)[nH]c(/C=C2\C(=O)Nc3ccc(F)cc32)c1C [sunitinib] + O=C(Oc1ccc([N+](=O)[O-])cc1)N1CCC(C(O)(c2ccc3c(c2)OCO3)c2ccc3c(c2)OCO3)CC1 [JZL184] (first compound 2 µM, partner dose 5 µM) | 33.2 | 59.9 | 72.5 | 102 |
| Cn1nnc2c(C(N)=O)ncn2c1=O [temozolomide] + Cc1cc(SCc2sc(-c3ccc(C(F)(F)F)c(F)c3)nc2C)ccc1OCC(=O)O [GW0742] (first compound 10 µM, partner dose 10 µM) | 68.4 | 83.3 | 50.7 | 131 |
| Cc1cc(SCc2sc(-c3ccc(C(F)(F)F)c(F)c3)nc2C)ccc1OCC(=O)O + COc1cc(N2CCC(N3CCN(C)CC3)CC2)ccc1Nc1ncc(Cl)c(Nc2ccccc2S(=O)(=O)C(C)C)n1 [NVP-TAE684] (first compound 10 µM, partner dose 0.4 µM) | 92.3 | 95.4 | 97.1 | 101 |
| COc1ccc(-c2ccc3c(N4CCOCC4)nc(N4C[C@@H](C)O[C@@H](C)C4)nc3n2)cc1CO + C/C(O)=C(\C#N)C(=O)Nc1cc(Br)ccc1Br [LFM-A13] (first compound 0.1 µM, partner dose 10 µM) | 73.3 | 82.9 | 83.3 | 102 |
| C=CCNC1=C2C[C@@H](C)C[C@H](OC)[C@H](O)[C@@H](C)/C=C(\C)[C@H](OC(N)=O)[C@@H](OC)/C=C\C=C(/C)C(=O)NC(=CC1=O)C2=O [Tanespimycin] + O=C(Oc1ccc([N+](=O)[O-])cc1)N1CCC(C(O)(c2ccc3c(c2)OCO3)c2ccc3c(c2)OCO3)CC1 [JZL184] (first compound 0.01 µM, partner dose 5 µM) | 82.3 | 77 | 66.5 | 109 |
| Cc1cc(N2CCOCC2)cc2[nH]c(-c3c(NC[C@@H](O)c4cccc(Cl)c4)cc[nH]c3=O)nc12 + Cc1cc(SCc2sc(-c3ccc(C(F)(F)F)c(F)c3)nc2C)ccc1OCC(=O)O [GW0742] (first compound 1 µM, partner dose 10 µM) | 63.4 | 94.6 | 95.2 | 110 |
| COc1ccc(C2=N[C@@H](c3ccc(Cl)cc3)[C@@H](c3ccc(Cl)cc3)N2C(=O)N2CCNC(=O)C2)c(OC(C)C)c1 [Nutlin-3] + C/C(O)=C(\C#N)C(=O)Nc1cc(Br)ccc1Br [LFM-A13] (first compound 0.5 µM, partner dose 10 µM) | 93.2 | 66 | 86.7 | 79.6 |
| Cc1cc(SCc2sc(-c3ccc(C(F)(F)F)c(F)c3)nc2C)ccc1OCC(=O)O + Oc1cc(-c2nc(-c3ccccc3)[nH]c2-c2ccncc2)ccc1Cl [L779450] (first compound 10 µM, partner dose 1 µM) | 52.4 | 71.9 | 96.5 | 89.2 |
| C=C(c1ccc(C(=O)O)cc1)c1cc2c(cc1C)C(C)(C)CCC2(C)C [Bexarotene] + C/C(O)=C(\C#N)C(=O)Nc1cc(Br)ccc1Br [LFM-A13] (first compound 10 µM, partner dose 10 µM) | 91.8 | 85.8 | 100 | 93.3 |
| CN(c1ncccc1CNc1nc(Nc2ccc3c(c2)CC(=O)N3)ncc1C(F)(F)F)S(C)(=O)=O + C/C(O)=C(\C#N)C(=O)Nc1cc(Br)ccc1Br [LFM-A13] (first compound 0.4 µM, partner dose 10 µM) | 84.4 | 91.8 | 67.1 | 67.9 |
| Cn1c(=O)n(-c2ccc(C(C)(C)C#N)cc2)c2c3cc(-c4cnc5ccccc5c4)ccc3ncc21 + O=C(Oc1ccc([N+](=O)[O-])cc1)N1CCC(C(O)(c2ccc3c(c2)OCO3)c2ccc3c(c2)OCO3)CC1 [JZL184] (first compound 0.02 µM, partner dose 5 µM) | 55.3 | 58.4 | 45.4 | 77.8 |
